Among the data in the antibiotic and cytotoxicity screens of Wong et al. (2023) are cytotoxicity call values, retold here.

Each structure is given as a SMILES string. The list shows a part of the results.

The subject of this experiment is HSkMC (human skeletal muscle cells). Nature of the experiment: cytotoxicity call (relative viability < 0.9). Conditions: 10 µM.
Take `CC(C)CCC[C@@H](C)[C@H]1CC[C@@]2(C)C3=C(CC[C@]12C)[C@@]1(C)CC[C@H](OC(=O)CCl)C(C)(C)[C@@H]1CC3`: the cytotoxicity call was “inactive”. In the case of `COc1ccc(C#Cc2ccc3c(c2)O[C@@H](CN(C)S(=O)(=O)c2ccccc2F)[C@@H](C)CN([C@H](C)CO)S3(=O)=O)cc1` it was “inactive”; in that of `C[C@H](CO)N1C[C@H](C)[C@H](CN(C)S(=O)(=O)c2cn(C)cn2)Oc2ccc(NS(=O)(=O)c3ccc(F)cc3)cc2CC1=O`, “inactive”.

Consider `O=c1[nH]ncc2ccccc12`, for which the cytotoxicity call is “inactive”. The value for `CO[C@@H](CN(C)C(=O)Nc1ccc(C(F)(F)F)cc1)[C@@H](C)CN(Cc1ccccc1Cl)[C@@H](C)CO` was “inactive”; that for `C[C@H]1CN([C@@H](C)CO)C(=O)Cc2cc(NC(=O)Nc3cccc4ccccc34)ccc2O[C@H]1CN(C)Cc1ccc(Cl)c(Cl)c1` was “inactive”; that for `Cc1cc(=O)[nH]c(=S)[nH]1` was “inactive”. For `C[C@H](CO)N1C[C@H](C)[C@@H](CN(C)C(=O)Nc2ccc3c(c2)OCO3)OCCCC[C@H](C)Oc2ccc(NC(=O)Nc3ccc(C(F)(F)F)cc3)cc2C1=O`, the cytotoxicity call is “inactive”. The value for `O=C1CCSc2ccc(F)cc21` was “inactive”; that for `C[C@H](O)C#Cc1ccc2c(c1)O[C@H](CN(C)C(=O)c1ccncc1)[C@H](C)CN([C@H](C)CO)S2(=O)=O` was “inactive”. The value for `Cn1c(=O)c2[nH]cnc2n(C)c1=O` was “inactive”; that for `C[C@H]1CN([C@@H](C)CO)C(=O)c2cccc(NC(=O)CCCCCC(=O)Nc3ccccc3N)c2O[C@@H]1CN(C)Cc1ccc(-c2ccccc2)cc1` was “active”. For the compound `CN(C)C(=O)CN1C[C@]23CN(Cc4cnn(C)c4)C[C@@H](C[C@@H]2S1(=O)=O)O3`, the cytotoxicity call was “inactive”.
